From the antibiotic and cytotoxicity screens of Wong et al. (2023)
Some of the results follow.

system: HSkMC (human skeletal muscle cells); assay: cytotoxicity call (relative viability < 0.9); conditions: 10 µM

SMILES | cytotoxicity call
CC(C)NC(=O)N1CC[C@@H]2N(S(C)(=O)=O)CC[C@@]2(C(=O)N2CCOCC2)CC1 | inactive
C[C@H]1[C@H](C)CC[C@]2(C(=O)O[C@@H]3O[C@H](CO[C@@H]4O[C@H](CO)[C@@H](O[C@@H]5O[C@@H](C)[C@H](O)[C@@H](O)[C@H]5O)[C@H](O)[C@H]4O)[C@@H](O)[C@H](O)[C@H]3O)CC[C@]3(C)C(=CC[C@@H]4[C@@]5(C)C[C@@H](O)[C@H](O)[C@@](C)(CO)[C@@H]5[C@H](O)C[C@]43C)[C@H]12 | inactive
COc1ccc(NC(=O)Nc2ccc3c(c2)C(=O)N([C@@H](C)CO)C[C@@H](C)[C@@H](CN(C)C(=O)Nc2c(C)noc2C)OCCCC[C@@H](C)O3)cc1 | inactive
CC[C@@H](N)CC12CC3CC(CC(C3)C1)C2 | inactive
O=C(C[C@@H]1CC[C@@H](NC(=O)c2ccc(F)cc2)[C@H](CO)O1)NCc1ccncn1 | inactive
Cc1ccc(S(=O)(=O)N2CCNCC2)cc1 | inactive
COC(=O)C(c1ccccc1Cl)N1CCc2sccc2C1.O=S(=O)(O)O (stereo not drawn) | inactive
COc1ccc(C#Cc2ccc3c(c2)[C@]2(C(=O)N3)[C@H](C(=O)Nc3nc4ccccc4s3)[C@H]3C(=O)O[C@H](c4ccccc4)[C@H](c4ccccc4)N3[C@@H]2c2ccc(O)cc2)cc1 | inactive
Oc1ccc(O)cc1 | inactive
O=C(N[C@@H](c1ccc(-c2ccccc2)cc1)c1cnccn1)C1CCN(Cc2ccc(Oc3ccccc3)cc2)CC1 | inactive
CCCNC(=O)C[C@@H]1CC[C@H]2[C@@H](COc3ccc(NS(=O)(=O)c4ccccc4C)cc3C(=O)N2C)O1 | inactive
CON=C1CC2(CC3CC(CC=C(C)CC(C)C=CC=C4COC5C(O)C(C)=CC(C(=O)O3)C45O)O2)OC(C(C)=CC(C)C)C1C (stereo not drawn) | active
C[C@@H]1CCCCO[C@@H](CN(C)C(=O)Nc2ccccc2)[C@H](C)CN([C@H](C)CO)C(=O)c2cc(NC(=O)NC3CCCCC3)ccc2O1 | inactive
Cc1ccc(S(=O)(=O)Nc2ccc3c(c2)C(=O)N([C@@H](C)CO)C[C@@H](C)[C@H](CN(C)Cc2ccncc2)OCCCC[C@H](C)O3)cc1 | inactive
C[C@H](CO)N1C[C@H](C)[C@H](CN(C)C(=O)Nc2ccccc2)OCCCC[C@H](C)Oc2ccc(NC(=O)Nc3ccccc3)cc2C1=O | inactive
C[C@@H]1CN([C@H](C)CO)C(=O)CCCn2nncc2CO[C@@H]1CN(C)S(=O)(=O)c1ccc(Oc2ccccc2)cc1 | inactive
C[C@@H]1CCCCO[C@H](CN(C)S(=O)(=O)c2ccc(F)cc2)[C@@H](C)CN([C@@H](C)CO)C(=O)c2cc(NS(C)(=O)=O)ccc2O1 | inactive
C[C@H]1C[C@@](N)(C(=O)O)C1 | inactive
COc1ccccc1C#Cc1ccc2c(c1)O[C@H](CN(C)C(C)=O)[C@@H](C)CN([C@@H](C)CO)S2(=O)=O | inactive
CCCCCN1C/C=C\CCC(=O)N(C)[C@H](C)[C@@H](c2ccccc2)OC(=O)[C@@H]2[C@@H]3C=C[C@]4(O3)[C@H](C1=O)N(c1ccccc1Cl)C(=O)[C@@H]24 | inactive
C[C@H](O)C#Cc1ccc2c(c1)O[C@@H](CN(C)C(=O)Cc1ccccn1)[C@@H](C)CN([C@@H](C)CO)S2(=O)=O | inactive
C[C@H](CO)N1C[C@H](C)[C@H](CN(C)S(=O)(=O)c2ccccc2)Oc2cc(Br)ccc2S1(=O)=O | inactive
C[C@@H]1CN([C@@H](C)CO)S(=O)(=O)c2ccc(C#CCC3CCCC3)cc2O[C@@H]1CN(C)C(=O)c1cnccn1 | inactive
Cc1noc(C)c1NC(=O)Nc1ccc2c(c1)C(=O)N([C@H](C)CO)C[C@@H](C)[C@H](CN(C)C(=O)Nc1c(C)noc1C)OCCCC[C@@H](C)O2 | inactive
O=C(C[C@@H]1CC=CC[C@H](NC(=O)OCC2c3ccccc3-c3ccccc32)C(=O)OC[C@@H](Cc2c[nH]c3ccccc23)NC1=O)N[C@H](CO)Cc1ccccc1 | inactive
COc1ccc(NC(=O)Nc2ccc3c(c2)C(=O)N([C@@H](C)CO)C[C@H](C)[C@@H](CN(C)Cc2ccc4c(c2)OCO4)OCCCC[C@H](C)O3)cc1 | inactive
N[C@H](C(=O)O)[C@@H]1CC(Cl)=NO1 | inactive
C[C@@H]1CN([C@@H](C)CO)C(=O)c2cc(NC(=O)NC3CCCCC3)ccc2O[C@@H](C)CCCCO[C@H]1CN(C)S(=O)(=O)c1ccc(F)cc1 | inactive
